Test results taken from PubChem BioAssay AID1508642 (National Center for Advancing Translational Sciences (NCATS), 2021).
Hit rate of the full screen: of about 43,000 compounds, about 200 (0.47%) were called active. Inconclusive results (about 12%) are left out. Calls come from the whole dose curve; as a rule, active = well fitted cell-killing curve with a large enough effect; inconclusive = small, poorly fitted or top-dose-only effect, or effect the other way; inactive = flat fitted curve, though single readings scatter. Some of the results follow.

Assay: Cell viability qHTS assay in S16 Pmp22-F2sN cells; note: nearly all actives have a fitted effect of over 65% in size
Settings: S16 Pmp22-F2sN Schwann cells viability, CellTiter-Glo, 24 h; series mostly up to 57.5 µM; activity change, negative = cytotoxicity: at the top concentration
How it was run: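 Used to flag compounds lowering reporter output through toxicity, this quantitative HTS measures ATP-based CellTiter-Glo luminescence in S16 Pmp22-F2sN Schwann cells after 24 h compound exposure at 37C.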
% is set by controls: 0 for no effect and ±100 for the full control effect.

Row | SMILES | activity change, negative = cytotoxicity
1 | O=C(Cn1cnc2nc3c(cc2c1=O)CCCC3)Nc1ccc(F)cc1Cl | inactive: -0.46%
2 | O=C(Nc1ccccc1C(=O)OCc1cc(=O)n2nc(C3CC3)sc2n1)c1ccc(Cl)cc1 | inactive: -1.42%
3 | Cc1ccc(C)c(N2CCN(c3nc4ccc(C)cc4nc3-n3nc(C)cc3C)CC2)c1 | inactive: 4.43%
4 | Cc1cc(C)n(CCC(=O)Nc2ccc(Cl)cc2)n1 | inactive: 4.04%
5 | CCOc1ccc(CCNC(=O)c2ccc(-n3c(C)cc4c3CCCC4)cc2)cc1OCC | inactive: 2.25%
6 | CCOC(=O)CNC(=O)c1cc2c(=O)oc3ccccc3c2s1 | inactive: 0.779%
7 | Cc1cccc(Cn2cc(S(=O)(=O)c3ccccc3)c(=O)c3cc(F)c(N4CCOCC4)cc32)c1 | inactive: -24%
8 | Cc1cccc(C)c1NC(=O)C1CCCN1S(=O)(=O)c1ccccc1 (configuration not stated) | inactive: 1.62%
9 | CN(C)c1ccc(CNC(=O)Cc2ccc(NC(=O)N3CCCCc4ccccc43)cc2)cc1 | inactive: 15.9%
10 | COc1ccc(N2CCN(CCCNC(=O)c3nnc(Cc4ccc(F)cc4)o3)CC2)cc1 | inactive: -16.5%
11 | Cc1ccccc1OC(=O)c1nc(SCc2ccccc2F)ncc1Cl | inactive: -13.5%
12 | Cc1ccc2c(CC(=O)Nc3ccc(S(=O)(=O)N4CCCCC4C)cc3)coc2c1C (configuration not stated) | inactive: -16.3%
13 | CCc1ccc2ncc3c(-c4ccc(F)cc4)nn(CC(=O)NC4CCCCC4)c3c2c1 | inactive: 1.2%
14 | CCOC(=O)Cn1c(=O)n(-c2cccc(Cl)c2)c2nc(-c3ccccc3Cl)nc(C(N)=O)c21 | inactive: 18%
15 | CCOc1ccc(S(=O)(=O)N(CC(=O)Nc2ccc(OC)cc2OC)c2ccccc2)cc1 | inactive: -0.97%
16 | Cc1nn(CCCC(=O)NCc2ccccc2Br)c(=O)c2c1sc1ccccc12 | inactive: 5.74%
17 | O=C(NCc1ccccc1F)C1CCCN(C(=O)N2CCOc3ccccc32)C1 (configuration not stated) | inactive: -2.28%
18 | O=C(CN1C=NS(=O)(=O)c2ccccc21)Nc1ccccc1F | inactive: 1.68%
19 | CCCNC(=O)C1CCC(Cn2c(=O)c3sccc3n(CC(=O)NCc3ccccc3)c2=O)CC1 (configuration not stated) | inactive: 5.9%
20 | COc1ccc(N2C(=O)CS(=O)(=O)C23C(=O)N(Cc2ccccc2F)c2ccccc23)cc1Cl (configuration not stated) | inactive: 2.29%
21 | Cc1nn(C(C)C(=O)N2CCN(c3ccc(F)cc3)CC2)c(=O)c2c1sc1ccccc12 (configuration not stated) | inactive: 1.75%

Row | SMILES | activity change, negative = cytotoxicity
22 | COc1ccc(Br)cc1CNC(=O)c1cc(=O)[nH]c2ccc(S(=O)(=O)N3CCCCC3C)cc12 (configuration not stated) | inactive: -11.9%
23 | COc1ccc(OC)c(CNS(=O)(=O)c2ccc3c(c2)oc(=O)n3C)c1 | inactive: -4.57%
24 | COc1ccc(-c2nc3ccccc3o2)cc1NC(=O)COc1ccc(C)c(C)c1 | inactive: 24.9%
25 | Cc1cccc2nc(Cn3c(=O)n(-c4ccc(Cl)cc4)c(=O)c4c5c(sc43)CCC5)cc(=O)n12 | inactive: 4.12%
26 | CCOc1ccc(C(=O)Nc2cccc(C(=O)OCc3cc(=O)n4cc(C)sc4n3)c2)cc1 | inactive: -0.618%
27 | O=C(NCC(c1cccnc1)N1CCN(c2ccccc2F)CC1)c1ccc(F)cc1 (configuration not stated) | inactive: -0.795%
28 | CSCCC(NS(=O)(=O)c1ccc2c(c1)oc(=O)n2C)C(=O)Nc1ccc(F)c(Cl)c1 (configuration not stated) | inactive: -4.87%
29 | Cc1cccc(NC(=O)c2cnc3sc(N4CCCC4)nn3c2=O)c1C | inactive: -5.39%
30 | COc1ccc(NC(=O)c2c(NCc3cccc(F)c3)sc3c2CCC3)c(OC)c1 | inactive: -24.1%
31 | CCCCOc1ccc(C2=NC(c3cccs3)=Nc3ccc(OC)cc3N2)cc1 | inactive: 0.0525%
32 | COc1cccc2sc(N(Cc3cccnc3)C(=O)c3ccco3)nc12 | inactive: -28.1%
33 | Cc1nn(C)c(C)c1S(=O)(=O)N(CC(=O)NCCc1ccc(Cl)cc1)c1ccc(C(C)C)cc1 | inactive: 1.72%
34 | Cc1ccccc1C(=O)Nc1ccc(S(=O)(=O)N2CCC(c3nc4ccccc4s3)CC2)cc1 | inactive: 1.3%
35 | COc1ccc(C)cc1NC(=O)C(=O)NCCc1sc(-c2cccc(C)c2)nc1C | inactive: 15.9%
36 | Cc1cc(C)cc(NC(=O)Cc2csc(COc3cccc(C)c3)n2)c1 | inactive: -5.02%
37 | CC(=O)c1ccc(NC(=O)Cn2c(=O)cc(C)c3c(C)nn(-c4cccc(F)c4)c32)cc1 | inactive: 6.67%
38 | Cc1c(C)c2c(cc(C)c3c(-c4ccc(Br)cc4)coc32)oc1=O | inactive: 4.84%
39 | CCOC(=O)c1cccc(NC(=O)CCn2c(=O)oc3ccccc32)c1 | inactive: 22.1%
40 | CCC(Oc1ccccc1)C(=O)Nc1cccc(OCc2cc(=O)n3cccc(C)c3n2)c1 (configuration not stated) | inactive: -17.4%
41 | Cc1ccc(CSc2nnc([C@@H](N)C(C)C)o2)cc1 | inactive: -6.53%
42 | Cc1ccc(C2N=C(N)Nc3nc4ccccc4n32)cc1 (configuration not stated) | inactive: -0.779%

Row | SMILES | activity change, negative = cytotoxicity
43 | CCN(CC)c1ccc(C(=O)NCc2nc3cccnc3n2Cc2ccc(C)cc2)cc1 | inactive: -13.6%
44 | Cc1cccc(-c2nc3c4c(-c5ccccc5)c(-c5ccccc5)oc4ncn3n2)c1 | inactive: 2.99%
45 | Cc1cccc(NC(=O)Cn2cc(S(=O)(=O)N3CCCC3)c(S(=O)(=O)N3CCCC3)c2)c1C | inactive: 0.557%
46 | CCOC(=O)c1c(C)[nH]c(C)c1S(=O)(=O)NCC(=O)Nc1cccc(SC)c1 | inactive: -10.6%
47 | CCC1CCc2nc3sc(C(=O)Nc4cccc(F)c4)c(N)c3cc2C1 (configuration not stated) | inactive: -5.22%
48 | COc1cccc(NC(=O)CSc2nc(C)c(Cc3ccccc3)c(=O)[nH]2)c1 | inactive: 1.4%
49 | Cc1cccn2c(=O)cc(CSc3nnc(NC(=O)C(C)C)s3)nc12 | inactive: 1.24%
50 | CN(C)CCNC(=O)c1ccc2nc(Cc3ccccc3)oc2c1 | inactive: -4.15%
51 | Cc1ccc(Cl)cc1N1CCN(C(=O)c2sc3nc4n(c(=O)c3c2C)CCC4)CC1 | inactive: -3.45%
52 | CCN(CC)C(=O)Cn1cc(SCC(=O)Nc2cc(OC)ccc2OC)c2ccccc21 | inactive: -7.48%
53 | COc1ccc(Cl)cc1NC(=O)CSc1cc(C)[nH]c(=O)n1 | inactive: -19.9%
54 | O=C(NCc1ccc(Cl)cc1)C1CCN(S(=O)(=O)c2ccc(F)cc2)CC1 | inactive: 9.72%
55 | CSc1ccc(CCNC(=O)c2c(C)nn(-c3ccc(F)cc3)c2-n2cccc2)cc1 | inactive: -13.5%
56 | CCC(C)n1c(SCc2ccc(F)cc2Cl)nc2ccsc2c1=O (configuration not stated) | inactive: 2.93%
57 | Cc1ccc(CSc2nc3ccc(NC(=O)CC(C)C)cc3s2)cc1 | inactive: -0.702%
58 | CCOC(=O)c1noc2ncn(Cc3ccc([N+](=O)[O-])cc3)c(=O)c12 | inactive: -13.7%
59 | COc1ccc(C(=O)NCC(c2ccc(N(C)C)cc2)N2CCOCC2)cc1 (configuration not stated) | inactive: -0.705%
60 | CCC(CC)C(=O)Nc1ccc2nc(SCC(=O)N3CCOCC3)sc2c1 | inactive: 16.7%
61 | Cc1ccccc1C(=O)Nc1sc2c(c1C(=O)N1CCCCC1)CCC(C(C)(C)C)C2 (configuration not stated) | inactive: -0.989%
62 | COc1ccccc1N1CCN(c2ncc3c(n2)CCN(Cc2ccc(C)s2)C3)CC1 | inactive: -4.37%
